Experimental data taken from US11925724B2, “Compounds with dual activity” (priority 2015, dated 2024).
Square brackets hold non-standard residues; d marks the D form. Ends that are not written are not given here. Peptide text beside a SMILES is read from it. Phe(4-F) = N[CH](Cc1ccc(F)cc1)C(=O)O; Dopa = N[CH](Cc1ccc(O)c(O)c1)C(=O)O

Tests used:
[1] = Contact angle of peptide-coated titanium surfaces; conditions: titanium substrate dipped in 1 mg/ml peptide solution (Tris buffer); titanium in buffer 33°
Experimental: To coat the Ti substrate with a peptide, a bare titanium substrate was dipped in 1 mg\ml peptide solution (Tris buffer). The change of the surface contact angle due to the assembly of the peptide on the substrate was measured.
1 cm×1 cm titanium surfaces were sonicated for 5 minutes in ethanol, washed with TDW and dried under nitrogen. The clean surfaces were dipped in a peptide solution (1 mg/mL in TRIS buffer at pH=8.5, 10 mM concentration and ionic strength of 154 mM with NaCl) and left for incubation overnight at room temperature. Then, the modified substrate were rinsed three times with 1 ml TDW and dried under nitrogen.
Contact angle measurements were carried out using a Theta Lite optical tensiometer (Attension, Finland).

[2] = Peptide layer thickness on Ti by AFM; assay type: physicochemical; conditions: Ti surfaces coated with peptide
Experimental: For further characterization of the coating topography and thickness, Atomic Force Microscopy (AFM) analysis of Ti surfaces coated with the different peptides was performed. […] Surfaces were prepared in the same manner as was mentioned before. AFM images were taken in AC mode with Si tip with spring constant 3 N/m in JPK instrument (NanoWizard 3).

Row | Compound | contact angle of coated surface [1] [°] | layer thickness (AFM) [2]
1 | N=C(N)NCCCC(NC(=O)C(Cc1ccc(F)cc1)NC(=O)C(Cc1ccc(F)cc1)NC(=O)C(N)Cc1ccc(O)c(O)c1)C(=O)NCC(=O)NC(CC(=O)O)C(N)=O (stereo not drawn) [Peptide 1, DOPA-Phe(4F)-Phe(4F)-Arg-Gly-Asp] (H-[Dopa][Phe(4-F)][Phe(4-F)]RGD-NH2; configuration not given here) | 54 | around 65 nm
2 | N=C(N)NCCCC(NC(=O)C(Cc1ccc(O)c(O)c1)NC(=O)C(Cc1ccc(F)cc1)NC(=O)C(N)Cc1ccc(F)cc1)C(=O)NCC(=O)NC(CC(=O)O)C(N)=O (centres unmarked) [Peptide 2] (H-[Phe(4-F)][Phe(4-F)][Dopa]RGD-NH2; configuration not given here) | 49 | –
3 | N=C(N)NCCCC(NC(=O)C(Cc1ccc(F)cc1)NC(=O)C(CC(=O)O)NC(=O)C(N)Cc1ccc(O)c(O)c1)C(=O)NC(Cc1ccc(F)cc1)C(=O)NCC(N)=O (centres unmarked) [Peptide 3] (H-[Dopa]D[Phe(4-F)]R[Phe(4-F)]G-NH2; configuration not given here) | 55 | –
4 | Peptide 4: control peptide with the same amino acids in mixed sequence, without the cell adhesion and the anti-fouling elements ([Dopa][Phe(4-F)]DG[Phe(4-F)]R; not fully specified (C-terminus)) | 65 | –
